Laboratory results reported in the RNAGym collection of RNA variant scans (doi:10.7554/elife.90254).
Read counts are not given, so values of variants with three or more changes are uncertain.

B1: LINE1-mini (parent)
chain: GGCAGAGCUCAACACAGCGUGGCAAAGUGGCUGUGGCUAGACUGCC

Variants of: B1
Assay: self-cleavage, relative activity (ratio to wild type); higher = more cleavage; in vitro, sequencing; the parent is a self-cleaving ribozyme

| Variant | self-cleavage |
| --- | --- |
| A11C C13A C18U | 0.01 |
| C10G A11G C45A | 0 |
| C13G G22C G27C G29C C31U U43C | 0.01 |
| C23A C42G C45A | 0.04 |
| A14U C23U U28C A41G | 0.11 |
| C3U C10G U20G A26G C31U | 0.03 |
| G7C A12G C15A G21U G22C G33C | 0.03 |
| G5A G36C C42A | 0.12 |
| G2A C3G U9C G17U U20G G27U | 0.05 |
| A11C A16G G35A G36U | 0.01 |
| C8G C10A A11C C37U U43A | 0 |
| A16G C23U A41U | 0.3 |
| U9A G27C C31U | 0.01 |
| G5C C8U A39G U43A | 0.02 |
| G2A A25G G30U U32A | 0.13 |
| C10U A11C A16C A39C | 0 |
| G1A G7U A12C C15G G30C A39U | 0.03 |
| C10A G21A C46G | 0.09 |
| A16U G19C G27C G40U G44U | 0.03 |
| C10A A25G G30A | 0.06 |
| G2A C10U U20C U28C C37G | 0.01 |
| C15G G30U C42A C45G | 0.02 |
| G2A C8U C13G | 0.98 |
| G7A G17C U32G G33A | 0.03 |

| Variant | self-cleavage |
| --- | --- |
| G7A G21U G33A | 0.09 |
| G17U C23G A41G U43C | 0.01 |
| U20G C23U A26U | 0.64 |
| A4G G19A G21C | 0.27 |
| C15U G27C G35U A39G C45G | 0.03 |
| C8U A26C C45U | 2.32 |
| G17A A41U G44A C45G | 0.09 |
| A16U G36U A39G | 0.06 |
| A41U U43G C45G | 0.05 |
| C3U C37G C46A | 0.05 |
| A14U G40U C45U | 0.02 |
| G5U G30A C45G | 0.08 |
| G21U A24G U28G A39U | 0.21 |
| G5U G7U C37U G40C C42G | 0.2 |
| G5C G17U C31U A39U | 0.02 |
| G22U A25U C31G A39G C46A | 0.04 |
| C15U G27C G29U | 2.92 |
| G5A C15U A16U U20C | 0.07 |
| G2U C18U C23G G35C | 0.04 |
| A6G C10A C45A | 0.01 |
| G1C C3A C8G C13U A16U G17A | 0.02 |
| C15A A16C U20C G30A | 0.03 |
| C10G A24G G27C | 0.29 |
| C3G G35C G44U | 0.19 |

| Variant | self-cleavage |
| --- | --- |
| A6U A11U C18A U28G G40C | 0.01 |
| C10U C18A U20A G30C A39G | 0.02 |
| A11G G29U G30U C46A | 0.03 |
| G33U U34C G40C G44U | 0.02 |
| C3U C15A G30U C42G C45U | 0.08 |
| C8G C31A C37U | 0.1 |
| G17U C18A C23G | 0.08 |
| C18A U20A G44U | 0.01 |
| G17U A24C G30C C42U G44A | 0.02 |
| C10G A14C G19U A24C G35A | 0.01 |
| C10U C13A A14C C31A C37A | 0.02 |
| A4U G17A G35C U38A C46U | 0.02 |
| C10A C15A C18G | 0.03 |
| C8A G21A A41G G44A | 0.11 |
| G1U A6G A16C | 0 |
| A12C U32A G33A | 0.01 |
| G17C U43C C46A | 0.1 |
| G5A C8G A14U | 0.13 |
| C18U G30C C37A | 0.05 |
| C31G C45G C46G | 0.05 |
| G21A G29U G33U C42G | 0.05 |
| G1U C3A C10G C46G | 0.06 |
| G19A G22C A26G G33A | 0.05 |
| C10G U28A G30A G36C | 0.04 |

| Variant | self-cleavage |
| --- | --- |
| G5A A12U A16C G17U A39C G40C G44U C46A | 0.01 |
| A24U A25U G44U | 0.04 |
| G2A U28A A39G | 0.41 |
| G2U A6U A12G C13U U20C U28C U32A C46U | 0.01 |
| G5A G40U A41C C42A | 0.2 |
| G1A G7C U38C G40U | 0.18 |
| A12C G30A U38G G40A | 0.01 |
| G2A G5U C46U | 0.26 |
| A16C A26G G27A C37A | 0.09 |
| C10G A26C G36U U43C | 0.01 |
| G30U U38C C42A | 0.1 |
| G5A G33U U43C | 0.01 |
| G1U G7A A16C G19U | 0.03 |
| G2C C3G C31A G36A | 0.02 |
| A12C U20A A24G | 0.02 |
| C13U U34G G35C | 0 |
| G1A C10U C18A | 0.05 |
| G17C A24G A26U G29U C31U C46A | 0.03 |
| A26U G27C G36U | 0.03 |
| U9G G30C C45A | 0.05 |
| A14U A26C U32A | 0.03 |
| A4C U38C G40A C45U | 0.04 |
| C3A G30U A41G C42G | 0.09 |
| G2C C13U A14G G33U G40A U43A | 0.03 |

| Variant | self-cleavage |
| --- | --- |
| A12C C18U G36U | 0.01 |
| G21U U34C G36A C46U | 0.34 |
| G29A G33U U38A | 0.04 |
| A6C C18A G19A G30A | 2.97 |
| C10G U38G C46U | 0.02 |
| C10A A14G C46A | 0.03 |
| A16C G17C A26C | 0.18 |
| G5U A6G C10G A16G G40A | 0.01 |
| C15G G17A C31A | 0.01 |
| C31U U43A C46G | 0.02 |
| C13U G30U G35C | 0.03 |
| G1C C3U U38A | 0.14 |
| A14C C23G C42A | 0.02 |
| C3A A14U G35U A41U | 0.04 |
| U20G G35A A41G | 0.06 |
| G17C A39G C46A | 0.06 |
| G1A G2C G5C U9A G27U U32C C37G G40A | 0.03 |
| A6G C10A G36U C42U | 0.01 |
| A6C U20A G40A C45U | 0.04 |
| C10U G19U A24C | 0.14 |
| A16G G29C G30C G35A | 0.02 |
| G5U C23U G27U A39G | 0 |
| C3G G27U G40U | 0.04 |
| G5U U28C G33A G40U | 0.02 |

| Variant | self-cleavage |
| --- | --- |
| G7C G27C U38G | 0.01 |
| A6G C18G U28C C37A | 0.05 |
| A16C C31A G40U G44A | 0 |
| C8U G17U A24C G35C G36C | 0.02 |
| G1U A4C C18G U20A | 0.05 |
| A6U G36C C37U | 0.05 |
| A4U G7C C42A | 0.05 |
| A4U G7C G22U G36C | 0.12 |
| G1U C31G G33A | 0.06 |
| G1C G5U A6G G7C C8A C10U A11C | 0.02 |
| U28A G33A U34G C42A | 0.14 |
| G1A A4C G35C C37G C46G | 0.12 |
| A6U C23G C37A | 0.16 |
| G17U G33C C45A | 0.02 |
| G19U A25C C45U | 0.24 |
| G1A G29A G35C | 0.08 |
| C3U U28C C31A U43C | 0.01 |
| G5A G7A C10A | 0.03 |
| U9A C23A G29U G40U | 0.02 |
| G1U G7U C46G | 0.03 |
| G2C U9G A16U U34C | 0.02 |
| G2U A24C U28G G35U G40U | 0.03 |
| G2A C3A C10A A11C U43G | 0 |
| G22U A41C C46U | 0.08 |

| Variant | self-cleavage |
| --- | --- |
| A4C G5C U32A A41C C45A | 0.06 |
| G1U A6C C8A A11U G27U C31A | 0.02 |
| G1U C10U C31G C37A | 0.01 |
| G1C C10U G22U C37U G40C C46U | 0.01 |
| G2U U20C A24G U34A G40A | 0.13 |
| C8A A12G C23G C42G | 0 |
| G2A C8G A12U C23U C31U G33U | 0.03 |
| G1U G7A C13G G19U G21C | 0.03 |
| G27A G40U C46U | 0.11 |
| U9C C15A U38G | 0.02 |
| G33U U38C C42G | 0.03 |
| G1A U20A A26U C45A | 0.33 |
| G19A G21C U32C A41U | 0.21 |
| C10G A11G G22C C46A | 0.01 |
| G2C C15U G22U | 0.05 |
| C13A U34G C45U | 0.01 |
| G7A C13A C23G U32C | 0.16 |
| G17C G21U G30U U32A A41C | 0.01 |
| C3G G5U U20C C45G | 0.12 |
| U20G U28G A41C | 0.02 |
| A11G C15A G17C G29C | 0.01 |
| A4G C15G C46A | 0.04 |
| U9C C23A A25G | 0.02 |
